Laboratory results as given in patent US10905774B2, “Nanocage and use thereof” (KOREA INSTITUTE OF SCIENCE AND TECHNOLOGY, priority 2016, dated 2021).

B1: FH-SIRPα HV: Nanocage self-assembled from fusion of human ferritin heavy chain (SEQ ID NO: 1), linker and SIRPα high-affinity variant (SEQ ID NO: 12) (protein)
chain: [about 200 residues not written out]KESGSVSSEQLAQFRSLDEEELQIIQPDKSVLVAAGETATLRCTITSLFPVGPIQWFRGAGPGRVLIYNQRQGPFPRVTTVSDTTKRNNMDFSIRIGNITPADAGTYYCIKFRKGSPDDVEFKSGAGTELSVRAKP
B2: FH-SIRPγ V2 nanocage: Ferritin heavy chain nanocage of fusion protein with SIRPγ HV2 (SEQ ID NO: 100), 27th amino acid not substituted (protein)
chain: [about 200 residues not written out]KESGSVSSEQLAQFRSLDEEELQIIQPEKLLLVTVGKTATLHCTVTSLFPVGPVLWFRGVGPGRVLIYNQRQGPFPRVTTVSDTTKRNNMDFSIRISSITPADVGTYYCIKFRKGSPENVEFKSGPGTEMALGAKP

Experiments:
CT26.CL25 cancer cells [1] = assay: In vivo cancer growth inhibition, intratumoral nanocages; parameters: species or system Balb/c wild-type mice; conditions: CT26.CL25 subcutaneous; intratumoral 28 mg/kg
Experimental: (§1) The antitumor activities of the ferritin heavy chain nanocage prepared in Examples 1-1 to 1-5 and the doxorubicin nanocage complex prepared in Example 3 were examined. Particularly, Balb/c wild type mice were used as the experimental animals, and experiments on the above experimental animals were carried out according to the regulations of the KIST animal ethics committee.
First, in order to measure the in vivo anticancer activity of the various ferritin heavy chain nanocages prepared in Examples 1-1 to 1-5, 1×10^6 cells of CT26.CL25 cancer cells expressing β-galactosidase were subcutaneously injected on the left side of Balb/c wild-type mice in order to induce cancer and then each experimental substance (buffer only, FH-mSIRPα WT, FH-SIRPα HV, FH-SIRPγ WT and FH-SIRPγ V2) was injected intratumorally at dose of 28 mg/kg) after 5 day of tumor inoculation, and the length (L) and the width (W) of the tumor tissues were measured using a caliper at intervals of 3 days (FIG. 7A), and then the volume of tumor tissue was calculated using the following formula: Tumor tissue volume (V [mm^3])=(L [mm])×(W [mm])^2×0.5

[2] = tested on: secondary cancer transplanted to other site; assay: Anticancer memory effect: secondary tumor rechallenge and survival; assay type: in vivo, mice; conditions: after 80 days of tumor rechallenge
Text: The present inventors have hypothesized that the effect of FH-SIRPα nanocage according to an embodiment of the present invention is due to the recruiting of immune cells from the results of Experimental Example 3. Thus, the present inventors analyze growth of secondary cancer transplanted to other site and counted survival rate of the experimental animals after excising primary tumor tissues from the experimental animals.

CT26.CL25 cancer cells [3] = assay: In vivo cancer growth inhibition, tail vein injection of doxorubicin nanocage complex and comparators; parameters: species or system Balb/c wild-type mice; conditions: tail vein 1 mg/kg, five injections at interval of 3 days
Experimental: as §1
In addition, the present inventors investigated the in vivo anticancer activity of the doxorubicin-encapsulated nanocage complex prepared in Example 3 above. Particularly, 1×10^6 cells of CT26.CL25 cancer cells were subcutaneously injected into the above Balb/c wild-type mice to induce cancer. […] Further, the volume of the tumor tissue over time before the sacrifice of the experimental animals was recorded from 7 days after the injection of cancer cells at the interval of 3 days by calculating using the following formula after measuring length (L) and width (W) of tumor tissues using a caliper: Tumor tissue volume (V [mm^3])=(L [mm])×(W [mm])^2×0.5

[4] = tested on: interferon-gamma (INF-γ) of T cells specific to CT26.CL25 antigens; assay: Antigen-induced INF-γ of splenocytes (ELISA); assay type: in vivo, mouse; conditions: splenocytes of treated animals, β-Gal peptide or AH1 peptide 5 μg/ml, 24 hours
Text: The present inventors investigated the cellular immunity against CT26.CL25 cancer cells in mouse spleen by doxorubicin-loaded FH-SIRPα HV nanocage complex in order to confirm whether the above-described immune response was cancer cell-specific. That is, the level of interferon-gamma (INF-γ) of T cells specific to β-galactosidase, an antigen of CT26.CL25, was quantified by ELISA (R&D Systems, Inc., USA). Three mice per group were selected from the mice treated in the same manner as in Experimental Example 3-1, the spleen was removed from each mouse, the spleen tissue was transferred to a sterilized petri dish, and the spleen tissue was ground using a cell strainer. And then cells were separated from the tissue epithelium. All the contents in the Petri dish were transferred to a 15 ml tube, filled with RPMI 1640 medium, centrifuged at 1,500 rpm for 5 minutes. After removing supernatant, red blood cells lysis buffer (Sigma-Aldrich, Germany) were added to pellet in order to hemolyze red blood cells. Cells contained in the tubes were washed with PBS and then suspended in RPMI 1640 medium to isolate splenocytes. […] The supernatant was then separated and level of INF-γ was quantified by ELISA (R&D Systems, Inc, USA).

HT29 cells per BMDM cell = assay: Phagocytosis index (PI) by microscopic observation; assay type: cell-based, human; conditions: number of cancer cells per BMDM cell, microscopy
Text: In addition, the phagocytosis rate of cancer cells by bone marrow-derived macrophages (BMDMs) was quantitated as a phagocytosis index (PI) expressed as a percentage by counting the number of cancer cells per BMDM cell by microscopic observation.

[5] = tested on: CD47 on the surface of cancer cells (CT26 mouse and HT29 human colorectal cancer cell lines); assay: Fluorescence microscopy of nanocage binding to cancer cells; assay type: cell-based; conditions: 400 nM
Experimental: (§2) The present inventors performed fluorescence microscopy to confirm whether the FH-SIRPα HV nanocage prepared in Example 1 specifically binds to CD47 on the surface of cancer cells. Specifically, CT26 mouse colorectal cancer cell line and HT29 human colorectal cancer cell line were inoculated at a concentration of 3×10^4 cells/ml. Then, after treating 400 nM of FH-SIRPα HV nanocage prepared in Example 1-1 or same amount of wild-type ferritin heavy chain nanocage as control group, anti-ferritin primary antibody (Abcam, Cambridge, UK) and FITC-conjugated anti-mouse rabbit secondary antibody (Jackson ImmunoResearch, Suffolk, UK) were treated and then fluorescence microscopic images were obtained. […] The affinities and kinetics of FH-SIRP α HV nanocage binding human or mouse CD47 were analyzed by surface plasmon resonance (SPR) analysis and the results are shown in Table 1 below.

[6] = tested on: Raji, HT-29, 4T1, CT26 and CT26.CL25 cancer cells co-cultured with BMDMs; assay: Phagocytosis of cancer cells by bone marrow-derived macrophages (FACS); assay type: cell-based, human, mouse; conditions: 400 nM
Text: (§3) Particularly, the present inventors observed the phagocytic action of macrophages and dendritic cells against tumor cells through FACS analysis. First, 3×10^5 cells/ml of bone marrow-derived macrophages (BMDMs) pre-stained with CellTracker Green (Thermo Fisher Scientific, USA) and (a) 1.25×10^6 cells/ml of human Raji Burkitt lymphoma cells, (b) human HT-29 colorectal cancer cells, (c) mouse 4T1 breast cancer cells, (d) mouse CT26 colorectal cancer cells and (e) mouse CT26.CL25 colorectal cancer cells overexpressing β-galactosidase pre-stained with pHrodo Red SE, respectively were seeded in RPMI medium and buffer only (control), the ferritin-SIRPα fusion nanocage (FH-SIRPα HV) of the present invention, the wild-type ferritin heavy chain nanocage (wtFH) and the monomeric SIRPα (mSIRPα) were treated at the concentration of 400 nM, respectively. […] The phagocytosis rate was determined by the following formula. […]

Mouse CD47 = target: T1, Mouse CD47 (Mus musculus, UniProt Q61735); assay: Surface plasmon resonance (SPR) analysis of affinities and kinetics of binding to mouse CD47
T1 sequence (Q61735 19-303): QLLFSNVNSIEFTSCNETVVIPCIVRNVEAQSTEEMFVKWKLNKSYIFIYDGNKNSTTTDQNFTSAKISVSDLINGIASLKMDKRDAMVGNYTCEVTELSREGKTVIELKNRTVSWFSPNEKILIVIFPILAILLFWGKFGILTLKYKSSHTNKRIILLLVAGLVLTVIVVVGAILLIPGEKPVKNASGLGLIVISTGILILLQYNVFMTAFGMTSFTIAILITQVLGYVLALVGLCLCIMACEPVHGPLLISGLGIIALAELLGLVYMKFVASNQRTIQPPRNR
Experimental: as §2

[7] = target: Human CD47 (Homo sapiens); assay: Surface plasmon resonance (SPR) analysis of affinities and kinetics of binding to human CD47
Experimental: as §2

[8] = tested on: Raji, HT-29, 4T1, CT26 and CT26.CL25 cancer cells co-cultured with BMDCs; assay: Phagocytosis of cancer cells by bone marrow-derived dendritic cells (FACS); assay type: cell-based, human, mouse; conditions: 400 nM
Text: as §3

[9] = tested on: CT26.CL25 mouse colon cancer cells; assay: Phagocytosis rate of CT26.CL25 cells by bone marrow-derived macrophages (counting phagocytized cells); assay type: cell-based; conditions: BMDMs cocultured with CT26.CL25 at 37° C. for 4 hours
Experimental: After the staining, phagocytosis rate of macrophages against cancer cells were determined by counting phagocytized cancer cells by the macrophages.

[10] = tested on: HT29 human colon cancer cells; assay: Flow cytometry of nanocage binding to HT29 cancer cells; assay type: cell-based; conditions: 20, 200, 400 or 600 nM
Experimental: In order to confirm the affinity of cancer cells for nanocages produced using various SIRP proteins prepared in Examples 1-2 to 1-5, respectively in addition to the nanocage prepared in Example 1-1, flow cytometry was performed. Particularly, HT29 human colon cancer cells were seeded into 2×10^5 cells/ml and the wild-type ferritin heavy chain nanocage as a control group, the FH-SIRPα HV nanocage prepared in Example 1-1, the FH-hSIRPα WT nanocage prepared in Example 1, the FH-SIRPγ WT nanocage prepared in Example 1-3 and the FH-SIRPγ V2 nanocage prepared in Example 1-5 were treated at the concentration of 20, 200, 400 or 600 nM, respectively, and the degree of cell binding was measured. Particularly, after treating anti-ferritin heavy chain primary antibody (Abcam, Cambridge, UK, 1:200) and an Alexafluor 488-conjugated donkey anti-rabbit secondary antibody (Jackson ImmunoResearch, Suffolk, UK, 1:400), the cells were sorted according to fluorescence intensity through flow cytometry analysis.

[11] = CT26.CL25 cells overexpressing β-galactosidase

Molecule	antitumor activity (tumor growth) (CT26.CL25 cancer cells [1])	survival rate [2] [%]	anticancer effect (growth of cancer cells) (CT26.CL25 cancer cells [3])	expression of IFN-γ [4]	phagocytosis index (PI) (HT29 cells per BMDM cell)	binding to cancer cells (FITC fluorescence) [5]	phagocytosis of CT26.CL25 cells by macrophages compared with recombinant SIRPα [6, 11]	phagocytosis of cancer cells by macrophages (BMDMs) ([6]; compared with control group)	ka (Mouse CD47) [M⁻¹ s⁻¹]	kd (Mouse CD47) [s⁻¹]	ka [7] [M⁻¹ s⁻¹]	kd [7] [s⁻¹]	phagocytosis of CT26.CL25 cells by dendritic cells compared with recombinant SIRPα [8, 11]	phagocytosis of cancer cells by dendritic cells (BMDCs) ([8]; compared with control group)	phagocytic activity against cancer cells [9]	degree of cell binding [10]
B1	very good antitumor activity	80	excellent anticancer activity	increased significantly	significantly higher than recombinant SIRPα	binds well to cancer cells	nearly doubled	significantly increased	1.1e+06	0.00041	5e+06	2.4e-07	remarkably increased	significantly increased		
B2	very good antitumor activity														higher phagocytosis activity against cancer cells	equivalent to the performance of SIRPα HV nanocage
